Measurements published in ChEMBL document CHEMBL4888484, “Replenishing the malaria drug discovery pipeline: Screening and hit evaluation of the MMV Hit Generation Library 1 (HGL1) against asexual blood stage Plasmodium falciparum ,using a nano luciferase reporter read-out” (2022).
The campaign covered roughly 150,000 compounds. About 540 (0.36%) showed an effect of 50% or more. This is one part of the list.

system: Plasmodium falciparum; test: Primary screen in NF54 nanoGlo assay, in single point, at 2uM, 72h; a lower Z score goes with more inhibition; assay type: functional, Erythrocyte; settings: timepoint 72 hour

| Compound | % Inhibition | Z score |
| --- | --- | --- |
| COc1ccc([C@@H]2C3=C(O)N(C(C)=O)CC3=Nc3cccc4c3c2cn4C(C)C)c(OC)c1 | -3% | 0.4 |
| O=C(C1CCOC1)N1CCC(F)(c2cccc(C(F)(F)F)c2)C1 (stereo unspecified) | 14% | -2.69 |
| CC(c1ccc(F)cc1)N(C)CCS(=O)(=O)CCN(C)C(C)c1ccc(F)cc1 (stereo unspecified) | 0% | 0.04 |
| COc1ccc(CNC(=O)c2c(C)oc3nc(C)nc(N4CCOCC4)c23)cc1 | -19% | 2.97 |
| O=C(N[C@H]1COC[C@H]1NC(=O)c1ccsc1)c1ccsc1 | 5% | -0.94 |
| CC1(C)C(C#N)C1(C#N)C(=O)Nc1ccccc1F (stereo unspecified) | -10% | 1.36 |
| Cc1cc(C)c(C(=O)NCc2cc3n(n2)CCN(S(C)(=O)=O)C3)c(C)c1 | -13% | 1.32 |
| CCC(=O)N1CC(C(=O)NCc2ccc3c(c2)OCO3)C(c2ccc(OC)cc2)C1 (stereo unspecified) | -4% | 0.6 |
| Cc1cc(C)cc(OS(=O)(=O)CCN2C(=O)NC3(CCCC3)C2=O)c1 | 1% | -0.14 |
| O=C(c1cccc(Cl)c1)N1CC2CCC(O)C2C1 (stereo unspecified) | -5% | 0.71 |
| O=C1Nc2ccc(Br)cc2C12CCCC2 | -3% | 0.36 |
| Cc1nnnn1Cc1ccc(C(=O)N2CCc3[nH]nc(C4CCC4)c3C2)cc1 | -5% | 0.83 |
| CC1(C)CN(C(=O)Cc2ccc(C(=O)O)cc2)CC(C)(C)O1 | -6% | 0.73 |
| CC(=O)N1N=C(c2cc(-c3ccc4c5c(cccc35)CC4)n[nH]2)O[C@H]1c1cccc(Cl)c1Cl | -2% | 0.46 |
| O=c1cc(-c2noc(CNS(=O)(=O)C3CC3)n2)cc[nH]1 | -10% | 1.64 |
| Cc1csc([C@H]2CCCN(S(=O)(=O)c3cnn(C)c3C)C2)n1 | 26% | -2.97 |
| COc1nsc(OC)c1C(=O)NC1(c2cc(Cl)cc(Br)c2)CC1 | -1% | 0.28 |
| COc1ccc(CCNc2ccc3nc(C)nn3n2)c(F)c1 | -4% | 0.43 |
| CC(=O)N1CCc2cc3cccc(C)c3nc21 | 1% | -0.15 |
| Cn1c(C2CCN(C[C@H]3CCOC3)CC2)nc2ccccc21 | -14% | 1.26 |
| Cc1nonc1N1CCN(C(=O)CCc2ccc(F)c(F)c2)CC1 | -1% | 0.16 |

| Compound | % Inhibition | Z score |
| --- | --- | --- |
| CCc1onc(C)c1NC(=O)NC1CN(Cc2ccccc2)CC1C (stereo unspecified) | -4% | 0.55 |
| O=C(NC1CCOC(c2ccccc2)C1)N1CCCCCC1 (stereo unspecified) | -17% | 3.23 |
| CN(Cc1ccccc1)C(=O)c1cccn2c(=O)c3ccc(Cl)cc3nc12 | -9% | 1.11 |
| Cc1[nH]cnc1CN(C)CCNc1cc([C@H]2CCOC2)ncn1 | -12% | 1.24 |
| CNC(=O)c1ccnc(N2CC[C@H]3[C@H](CCC(=O)N3CCCO)C2)c1 | -8% | 0.98 |
| C=CCN(CC(O)c1ccc(OCc2ccccc2)cc1)C(C)CCc1ccccc1 (stereo unspecified) | -2% | 0.3 |
| Cc1ncsc1CNC1[C@@H]2CCO[C@@H]2C12CCCC2 (stereo partly specified) | -6% | 1.14 |
| Cc1c(C(=O)N2CCC(C(=O)N3CCCCCC3)CC2)oc2c(Cl)cccc12 | -9% | 1.36 |
| O=C(Nc1ccc(Cl)c(Br)c1)[C@H]1CCOC1 | -7% | 0.85 |
| COCCNc1nc(-c2cccc(F)c2)c2c(N)n(C)nc2n1 | -13% | 1.38 |
| Cc1cc(C(=O)N2CCc3c(cccc3N3CCOC3=O)C2)c(C)o1 | 4% | -0.47 |
| CC[C@H](C)NCCOc1ccc(C)c(C)c1 | -12% | 1.67 |
| Cc1nc(C)c(-c2csc(C[C@H](C)n3cc(Cl)cn3)n2)o1 | -17% | 1.97 |
| Cc1nn(C(C)C)c(C)c1CN(C)c1cc([C@H]2CCOC2)ncn1 | 2% | -0.38 |
| O=C(O)[C@@H](c1ccsc1)N1CCC(c2nc(-c3ccccc3)n[nH]2)CC1 | -8% | 1.43 |
| Cn1nncc1S(=O)(=O)N1CC(C)(C)C1C1CCCO1 (stereo unspecified) | -8% | 0.76 |
| Cc1cc(NC(=O)c2cc(N3CCOCC3)ncn2)[nH]n1 | 12% | -1.56 |
| O=C(N[C@H]1[C@H](O)[C@H](O)C[C@@H]1c1ccncc1)C1CCOCC1 | -1% | 0.11 |
| O=C(CC1CCCC1)NCCCN1C(=O)CNC1=O | 2% | -0.45 |
| CS(=O)(=O)N1CCC(C(=O)N(Cc2cccs2)Cc2cccs2)CC1 | -10% | 1.52 |
| O=C(NC[C@H]1CCCN(c2cc(O)ncn2)C1)c1ccccc1-n1cnnc1 | 2% | -0.44 |

| Compound | % Inhibition | Z score |
| --- | --- | --- |
| COc1ccc(CCOc2nc(-c3ccc(Cl)c(Cl)c3)n(-c3ccc(NC(=O)C(C)C)cc3)n2)cc1 | -12% | 1.35 |
| CC(C)(C)CN1CCC[C@@](O)(CNC(C)(C)C)C1=O | -5% | 0.77 |
| C[C@H](NC(=O)N1CCC(CCc2ccc(F)cc2F)CC1)c1cccnc1 | -5% | 0.92 |
| Cc1cccc2cc3c(nc12)N(C(=O)COc1ccccc1)CC3 | 2% | -0.26 |
| O=C(Cn1cc(S(=O)(=O)N2CCCCC2)ccc1=O)Nc1ccccc1 | -6% | 1.27 |
| CCC(CC)N(C)Cc1nncn1C(C)C | -5% | 0.7 |
| O=C(c1cccc(Cl)c1)N1CC[C@@]2(C1)NC(=O)N(Cc1ccc(Cl)cc1)C2=O | 8% | -1.02 |
| O=c1ccn(CCCOc2ccc(F)cc2)c2c(OC(F)(F)F)cccc12 | -9% | 1.22 |
| CC(C)c1nn(C)c(N2CCOCC2)c1CNc1cc(CCc2ccccc2)ccn1 | -7% | 1.04 |
| Cc1nn(-c2ccc(C(C)(C)C)cc2)c(C)c1[C@@H]1C=C[C@@H](NC(=O)CC(C)(C)CC(=O)O)C1 | 33% | -3.69 |
| Cc1cccc(-c2nc(CN3CC[C@]4(CCCO4)CCC3=O)c(C)o2)c1 | 3% | -0.48 |
| C[C@@H](CNc1nc2cc(Br)ccc2o1)c1nncn1C | -11% | 2.06 |
| Cc1noc([C@@H]2CN(C(=O)Nc3cc(C)c4cn[nH]c4c3)C[C@H](C)O2)n1 | -3% | 0.53 |
| Nc1cc(F)cc(CNC(=O)C(F)(F)F)c1 | -7% | 1.01 |
| CCN(CC1CCCO1)C(=O)NC1CCCc2occc21 (stereo unspecified) | -12% | 1.63 |
| COc1cc(C)c2[nH]c3c(c(=O)c2c1)CN(CC(=O)Nc1ccc(F)c(C)c1)CC3 | 43% | -1.61 |
| Cc1cc(CS(=O)(=O)NCCOc2ccc(Cl)cc2)on1 | 31% | -0.24 |
| COc1ccc(F)c(-c2ncccc2C(=O)N2C[C@@H]3CC[C@H]2C3)c1 | 9% | -1.28 |
| N#CCC[C@H](NC1CCC2(CC1)OCCO2)c1ccccc1 | 1% | -0.07 |
| Cc1ccc2nc(C(=O)N3CCCN(c4ccccc4C)CC3)c(F)n2c1 | -6% | 1.14 |
| CN(Cc1ccno1)C(=O)c1cc(Cn2ccc3ccccc32)[nH]n1 | -3% | 0.39 |

| Compound | % Inhibition | Z score |
| --- | --- | --- |
| C#CCNC(=O)[C@H](C)N1CCOC(C)(C)C1 | -16% | 1.92 |
| CC(C)c1nc(N2CCC(c3[nH]ncc3Cc3ccccc3)CC2)no1 | -14% | 1.34 |
| OC[C@H](Nc1ccccc1)c1ccccc1 | -8% | 1.05 |
| O=C(Nc1ccc2c(c1)OCO2)c1cc2ccccc2[nH]1 | 0% | 0.02 |
| CC(=O)c1ccc(Oc2nc(C)nc(N(C)Cc3ccc(F)cc3)c2N)cc1 | -1% | 0.18 |
| CCc1nnc(NC(=O)[C@H](C)N2CCC3(CC2)N=C(N(C)C)NC3=O)s1 | 0% | -0.08 |
| CCOc1ccc([C@@H]2c3cccn3CCCN2Cc2ccc(F)cc2)cc1 | -5% | 0.64 |
| CC[C@@H](CNc1cccc(C(=O)N(C)C)n1)N1CCOCC1 | -1% | 0.23 |
| Cn1cc([C@@H]2CCCN2Cc2noc(-c3ccccc3)n2)cn1 | 3% | -0.49 |
| CCN(CC)S(=O)(=O)c1ccc(N2CCOCC2)c(NC(=O)c2ccc(S(=O)(=O)N3CCCCCC3)cc2)c1 | 3% | -0.51 |
| C=CCN1C(=O)C(C(=O)NC(C)(C)C)[C@H]2C[C@@]1(C)Oc1ccccc12 (stereo partly specified) | 1% | -0.15 |
| Cc1ccc(C)c(NC(=O)c2ccccc2-c2nc3ccccc3s2)c1 | 11% | -1.43 |
| N#Cc1cnn2ccn(CC(=O)Nc3cccc(F)c3)c12 | -6% | 0.83 |
| O=S(=O)(NCCc1ccoc1)c1ccc(N2CCCCS2(=O)=O)cc1 | -11% | 1.66 |
| O=C1c2ccccc2C(=O)N1CCN1CCN(c2ncnc3sccc23)CC1 | -13% | 1.5 |
| COc1ccc(OC)c(NC(=O)N2CCC3(CC2)Oc2ccccc2C(=O)N3Cc2ccccc2F)c1 | -9% | 1.18 |
| CC1(C)CC(NCc2n[nH]c(N)n2)CC(C)(C)C1 | -8% | 1.16 |
| CCC(C)CN1C(=O)C(Cc2ccccc2)NC12CCN(S(=O)(=O)c1ccc(C)cc1)CC2 (stereo unspecified) | -13% | 1.83 |
| c1ccc(-c2nc(CN3CCCCCCC3)cs2)cc1 | -10% | 1.49 |
| C1CCC(Oc2nnc(C3CC3)s2)C1 | -3% | 0.63 |
